# About 890 (0.34%) of roughly 260,000 compounds were called active. The shares of active, inactive and inconclusive entries below differ from those in the screen. Calls follow the shape of the dose curve; as a rule, active = well fitted activation curve with a large enough effect; inconclusive = small, poorly fitted or top-dose-only effect; inactive = no such curve, though single readings can be large or run the other way. Potencies of inconclusive entries are left out as doubtful fits.
# Target: Pyruvate kinase PKM (Homo sapiens) (UniProt P14618)
# UniProt P14618, sequence (P14618 whole entry, looked up, canonical isoform): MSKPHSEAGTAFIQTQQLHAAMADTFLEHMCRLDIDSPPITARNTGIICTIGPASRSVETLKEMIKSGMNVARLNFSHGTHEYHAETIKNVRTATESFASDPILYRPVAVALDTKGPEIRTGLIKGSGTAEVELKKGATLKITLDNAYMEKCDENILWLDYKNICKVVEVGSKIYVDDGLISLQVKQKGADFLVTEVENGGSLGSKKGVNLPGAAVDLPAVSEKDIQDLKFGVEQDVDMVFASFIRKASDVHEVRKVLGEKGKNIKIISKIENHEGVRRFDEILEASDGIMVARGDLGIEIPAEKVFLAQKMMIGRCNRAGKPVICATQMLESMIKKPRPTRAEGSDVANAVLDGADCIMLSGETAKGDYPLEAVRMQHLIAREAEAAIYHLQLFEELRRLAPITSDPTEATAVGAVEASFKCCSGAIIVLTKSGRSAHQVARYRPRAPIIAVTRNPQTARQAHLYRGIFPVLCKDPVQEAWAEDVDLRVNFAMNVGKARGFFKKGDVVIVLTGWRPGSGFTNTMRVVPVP
# Experiment: qHTS Assay for Activators of Human Muscle isoform 2 Pyruvate Kinase; also: nearly all actives have a fitted effect of over 55% in size
# Conditions: purified PKM2, Kinase-Glo ATP luminescence; Potency: activation; activation: at 57.5 µM (top of the series), 0% is enzyme alone, no compound
# How it was run: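 hPK-M2, >95% pure; 0.1 mM ADP / 0.5 mM PEP final; imidazole pH7.2 buffer w/ 7 mM MgCl2, 50 mM KCl; 1 h RT; Kinase-Glo lum. Intermediate enzyme activity for dual inhibitor/activator qHTS.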
# Potency is read from the fitted curve at half-maximal effect; tags tell the direction and shape of the fitted curve.
row,Compound,Potency
1,O=C(O)C1Nc2c(O)cccc2C2C=CCC12 (stereo not given),"inconclusive [rising, partial curve]"
2,CCn1c(N2CCN(S(=O)(=O)c3ccc(F)cc3)CC2)nc2ccccc21,"inconclusive [rising, single point]"
3,COc1cccc(NC(=O)CSc2nc3n[nH]c(C)c3c(=N)n2-c2cccc(OC)c2)c1,active: 25.1 µM
4,Cc1cc(NCCN2CCOCC2)n2c(nc3ccccc32)c1C#N,inactive
5,O=C1c2cccnc2C(Nc2ccccc2Br)N1Cc1ccco1 (stereo not given),"inconclusive [rising, single point]"
6,CS(=O)(=O)n1nc(OC(=O)c2cc(Br)ccc2Cl)cc1N,inactive
7,O=C(NCC(c1cccs1)N1CCOCC1)c1cccc([N+](=O)[O-])c1 (stereo not given),"inconclusive [rising, full curve]"
8,CC(C)NS(=O)(=O)c1ccc(OCC(=O)NCc2ccc3c(c2)OCO3)c(Cl)c1,"inconclusive [rising, partial curve]"
9,CN(C(=O)c1coc(=O)c2ccccc12)c1ccc(F)cc1,"inconclusive [rising, single point]"
10,O=C(O)/C=C/C(=O)Nc1ccccc1SC(F)(F)F,"inconclusive [rising, partial curve]"
11,Clc1ccc(-n2nnc(-c3cccnc3Cl)n2)cc1Cl,inactive
12,COc1ccccc1NC(=O)N1CCC(NC(=O)C2CCCCC2)CC1,inactive
13,CCOC(=O)c1sc2nc(C(C)C)c3c(c2c1N)CCC3,inactive
14,Cc1cccc(-c2ncc(CN3CCN(C4CCCC4)C(CCO)C3)cn2)c1 (stereo not given),"inconclusive [rising, single point]"
15,CN(Cc1ccccc1)S(=O)(=O)c1ccc(NC(=S)NC(=O)C2CCCCC2)cc1,inactive
16,Cc1nnc(SCC(=O)N/N=C/c2ccc(-c3ccc(C)c(Cl)c3)o2)s1,"inconclusive [rising, partial curve]"
17,CCCn1c(N)c(C(=O)CSc2nc(C)cs2)c(=O)[nH]c1=O,"inconclusive [rising, partial curve]"
18,Cn1c(SCC(=O)c2ccccc2F)nnc1C1CC1,active: 31.6 µM
19,O=C(c1ccc(F)cc1)N1CCOCC1,inactive
20,COc1ccccc1Nc1ccc([N+](=O)[O-])cn1,"inconclusive [rising, single point]"
21,Cc1ccc(/C=N/NC(=O)CSc2nc3ccccc3s2)o1,"inconclusive [rising, partial curve]"
22,Cc1ccc(S(=O)(=O)N2CCCN(S(=O)(=O)c3ccc(C)c(C)c3)CC2)cc1C,active: 2.24 µM
23,O=C1C=CC(=O)N1c1ccc(OC(F)F)cc1,"inconclusive [rising, full curve]"
24,c1ccc(-c2noc(C34CC5CC(CC(C5)C3)C4)n2)nc1,inactive
25,COc1ccc(S(=O)(=O)N2CCN(Cc3cc(OC)c(O)c(OC)c3)CC2)cc1,inactive

row,Compound,Potency
1,CCCCN(CC)CCCNC(=O)CN1C(=O)CSc2ccc(S(=O)(=O)N3CCOCC3)cc21,"inconclusive [rising, single point]"
2,CCn1c(CC(=O)Nc2ccccc2OC)nnc1SCC(=O)Nc1ccccc1F,"inconclusive [rising, single point]"
3,CC(C)NC(=O)c1cc(-c2ccco2)nn1-c1ccc(Cl)cc1,"inconclusive [rising, partial curve]"
4,CCOC(=O)c1cc(-c2ccco2)nn1-c1ccc(C)cc1,inactive
5,CC[C@@H]1[C@H]2CCCC(=O)N3CC[C@@H](C[C@@H]1Nc1ccccc1)[C@@H]23,inactive
6,COc1ccccc1/C=N/NC(=O)CC(=O)NCc1cccnc1,"inconclusive [rising, single point]"
7,COc1cccc(-c2noc(CCC(=O)Nc3cccnc3)n2)c1,"inconclusive [rising, single point]"
8,CC1C/C(=C/c2ccccn2)C(=O)/C(=C/c2ccccn2)C1 (stereo not given),"inconclusive [rising, single point]"
9,COc1ccccc1C(=O)N1CCN(Cc2cn[nH]c2-c2ccc(F)cc2F)CC1,"inconclusive [rising, partial curve, poor fit]"
10,COc1cc(C(c2nnnn2C(C)(C)C)N2CCN(c3nc4ccccc4s3)CC2)ccc1O (stereo not given),active: 25.1 µM
11,Cc1ccccc1OCC(O)Cn1c(=N)n(Cc2ccccc2)c2ccccc21 (stereo not given),inactive
12,CCCCC1=CC2=C(c3ccco3)C(=O)C(C)(OC(=O)c3ccc(OC)cc3)C(=O)C2=CN1CCc1ccccn1 (stereo not given),"inconclusive [rising, partial curve]"
13,CC(=O)Nc1ccc(-n2nnnc2SCC(=O)Nc2cccc(NC(=O)c3ccco3)c2)cc1,"inconclusive [rising, single point]"
14,COc1cc(/C=C/c2cccc[n+]2C)ccc1OCC(=O)Nc1ccccc1C,inactive
15,CCOc1ccccc1OCC(=O)Nc1ccc(S(=O)(=O)N(C)C)cc1,"inconclusive [rising, single point]"
16,C=CC[C@@H]1Cc2c(Br)ccc(Br)c2[C@@H](CC=C)N1,inactive
17,Cc1ccc(SCC(=O)Nc2ccc(S(=O)(=O)Nc3nccs3)cc2)cc1,"inconclusive [rising, single point]"
18,CNC(=S)N1N=C(c2ccc(OC)cc2)CC1c1ccccc1Cl (stereo not given),"inconclusive [rising, partial curve]"
19,CC(=O)c1ccc(N2CCc3ccccc3C2)c([N+](=O)[O-])c1,"inconclusive [rising, single point]"
20,CCOC(=O)N/N=C\c1ccccc1OC/C=C/c1ccccc1,inactive
21,O=C(NCc1ccco1)C(c1ccccc1)N(Cc1ccccc1)C(=O)Cn1nnc2ccccc21 (stereo not given),inactive
22,COCCOc1ccc(C(F)(F)F)cc1Nc1nc2ccccc2o1,"inconclusive [rising, single point]"
23,Cc1ccc(-c2csc(NC(=O)/C=C/c3ccco3)c2C(=O)O)cc1,"inconclusive [rising, single point]"
24,COC(=O)c1cc(C(=O)OC)n(Cc2ccc(F)cc2)c1C,inactive
25,Cc1nc2ncccn2c1-c1csc(Nc2ccc(O)cc2)n1,"inconclusive [rising, partial curve]"

row,Compound,Potency
1,Cn1c(Cn2c(=O)sc3ccccc32)nnc1SCc1ccccc1F,"inconclusive [rising, partial curve]"
2,O=C1c2ccccc2OCOc2ccccc21,"inconclusive [rising, full curve, poor fit]"
3,O=C1CC(c2ccco2)CC2=C1C(c1ccccc1)n1nc(C(F)(F)F)nc1N2 (stereo not given),active: 4.47 µM
4,O=C1N/C(=C/c2ccco2)C(=O)N1Cc1ccccc1F,"inconclusive [rising, single point]"
5,CCCNC(=O)c1cc(S(=O)(=O)N2CCCCC2)c[nH]1,"inconclusive [rising, single point]"
6,COc1ccc(C(=O)N2CCC(n3c(C)nc4cc(F)ccc43)CC2)cc1,active: 11.2 µM
7,Cc1cc(C(=O)Nc2ccccc2N2CCOCC2)c(C)o1,"inconclusive [rising, single point]"
8,Cn1c(N)c(C(=O)NCc2ccccc2Cl)sc1=S,"inconclusive [rising, full curve, poor fit]"
9,COc1ccc(-c2nnc3ccc(SCC(=O)Nc4nc5ccc(C)cc5s4)nn23)cc1OC,"inconclusive [rising, single point]"
10,CCOc1ccccc1N(CC(=O)NC(C)(C)C)C(=O)Cn1nnc(-c2ccc(C)o2)n1,"inconclusive [rising, single point]"
11,Cc1ccc(NNS(=O)(=O)c2ccc(C)cc2)cc1,"inconclusive [rising, full curve, poor fit]"
12,CC(=O)c1c(C)oc2ccc(N(C(C)=O)S(=O)(=O)c3cccc4cccnc34)cc12,"inconclusive [rising, single point]"
13,Cc1ccc(S(=O)(=O)N2CCC(C(=O)NCc3ccccc3Cl)CC2)cc1,"inconclusive [rising, partial curve]"
14,O=C(NNc1ccccc1)/C(=C\c1cccnc1)NC(=O)c1ccccc1,inactive
15,c1cc2c3c(cccc3c1)C(N1CCOCC1)=N2,inactive
16,COc1ccc(CCNC(=O)c2ccc(Cl)c(S(=O)(=O)N(C)c3ccccc3)c2)cc1,inactive
17,CCOc1ccc(/C=C/C(=O)c2ccccc2)cc1OC,inactive
18,O=C1N/C(=C/c2ccsc2)C(=O)N1c1ccccc1,"inconclusive [rising, single point]"
19,CCCSc1nnc(-c2c[nH]c3ccccc23)n1CC,"inconclusive [rising, partial curve]"
20,O=C(/C=C/c1ccc(Cl)cc1)Nn1c(-c2cccs2)nc2ccccc2c1=O,"inconclusive [rising, single point]"
21,Cc1ccc(-c2csc(NC(=O)CSc3nc(C)cs3)n2)cc1,inactive
22,CN(C)c1ccc(C2CC(c3cccc(NS(C)(=O)=O)c3)=NN2C(=O)c2ccccc2)cc1 (stereo not given),"inconclusive [rising, partial curve]"
23,COCCn1c(SCc2nc3ccccc3c(=O)[nH]2)nc2ccccc2c1=O,"inconclusive [rising, full curve]"
24,COc1ccc(NC(=O)c2cc(C)on2)cc1OC,inactive
25,O=[N+]([O-])c1ccc(C2=Nn3cnnc3SC2)cc1,"inconclusive [rising, partial curve]"
